Laboratory results from patent publication US11161864B2, “Sting agonists” (Venenum Biodesign, LLC, priority 2018, dated 2021).
pEC50: −log10 of the molar value. Read-outs that look alike come from different tables or passages of the source.

Experiments:
[1] = target: T1, wildtype (WT) STING protein, THP1 Dual (WT) human cells (Homo sapiens (Human), UniProt Q86WV6, H232R)
[2] = system: STING pathway, RAW-Dual Reporter cell line; assay: cells; conditions: for Emax: read-out: Murine Agonist Efficacy, 5 hrs
[3] = target: T2, HAQ STING protein, THP1 Dual (HAQ) human cells (Homo sapiens (Human), UniProt Q86WV6, G230A/H232R/R293Q/R71H); conditions: for pEC50: read-out: Human HAQ Agonist EC50
T2 sequence (Q86WV6 whole entry R71H/G230A/H232R/R293Q): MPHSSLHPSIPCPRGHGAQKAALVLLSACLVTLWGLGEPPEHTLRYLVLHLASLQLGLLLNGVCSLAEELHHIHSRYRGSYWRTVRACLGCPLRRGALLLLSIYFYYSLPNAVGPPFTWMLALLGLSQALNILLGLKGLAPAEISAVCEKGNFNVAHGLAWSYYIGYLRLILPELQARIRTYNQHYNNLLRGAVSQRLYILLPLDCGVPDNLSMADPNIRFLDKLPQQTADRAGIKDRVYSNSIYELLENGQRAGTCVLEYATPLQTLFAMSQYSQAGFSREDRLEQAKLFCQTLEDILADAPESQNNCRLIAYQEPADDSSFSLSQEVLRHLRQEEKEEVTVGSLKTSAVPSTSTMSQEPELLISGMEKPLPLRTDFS

[4] = target: T1, wildtype (WT) STING protein, THP1 Dual (WT) human cells; assay: cell-based; conditions: for pEC50: Human WT Agonist EC50, 5 hrs; for Emax: THP1-Dual, 5 h, read-out: Human WT Agonist Efficacy, 5 hrs
[5] = target: T2, HAQ STING protein, THP1 Dual (HAQ) human cells; assay: cell-based; conditions: for pEC50: Human HAQ Agonist EC50, 5 hrs; for Emax: THP1-Dual, 5 h, read-out: Human HAQ Agonist Efficacy, 5 hrs
[6] = read-out: Murine Agonist EC50, 5 hrs
[7] = Mus musculus, 5 h, read-out: Murine Agonist EC50, 5 hrs

T1 sequence (Q86WV6 whole entry H232R): as the sequence (Q86WV6 whole entry R71H/G230A/H232R/R293Q) above, with H71R, A230G, Q293R counted along it

| Emax [4] [%] | Emax [5] [%] | Structure (SMILES) | pEC50 [2, 6] | pEC50 [4] | Emax ([2]; Mus musculus, 5 h) [%] | further results |
| --- | --- | --- | --- | --- | --- | --- |
|  |  | N#Cc1cnc2c(c1)nc1n2CCOP(=O)(S)OC[C@H]2O[C@@H](n3cnc4c(=O)[nH]c(N)nc43)[C@H](OP(=O)(S)OC1)[C@@H]2F (single isomer, unassigned) [Example 38C] |  |  |  | Human WT Agonist Efficacy [1]: >100%; Murine Agonist Efficacy [2]: >100%; pEC50 ([2]; read-out: Murine Agonist EC50): > 5.00; Human HAQ Agonist Efficacy [3]: >100% |
|  |  | Nc1nc2c(nnn2[C@@H]2O[C@@H]3COP(=O)(S)OCCn4c(nc5cncnc54)COP(=O)(S)O[C@@H]2[C@@H]3F)c(=O)[nH]1 (single isomer, unassigned) [Example 24C] | > 5.00 |  |  | Human WT Agonist Efficacy [1]: >100%; Murine Agonist Efficacy ([2]; 5 hrs): <100%; Human HAQ Agonist Efficacy [3]: >100% |
|  |  | Nc1nc2c(ncn2[C@@H]2O[C@@H]3COP(=O)(S)OCCn4c(nc5cncnc54)COP(=S)(S)O[C@@H]2[C@@H]3F)c(=O)[nH]1 (single isomer, unassigned) [Example 29A] | 4.00 to 5.00 |  |  | Human WT Agonist Efficacy ([1]; 5 hrs): <100%; Murine Agonist Efficacy ([2]; 5 hrs): >100%; Human HAQ Agonist Efficacy ([3]; 5 hrs): >100% |
|  |  | Nc1nc2c(ncn2[C@@H]2O[C@@H]3COP(=O)(S)OCCn4c(nc5c(N)ncnc54)COP(=O)(S)O[C@@H]2[C@@H]3F)c(=O)[nH]1 (single isomer, unassigned) [Example 7D] | > 5.00 | 4.00 to 5.00 |  | pEC50 ([3]; 5 hrs): > 5.00 |
|  |  | Nc1nc2c(ncn2[C@@H]2O[C@@H]3COP(=O)(S)OCCn4c(nc5cncnc54)COP(=S)(S)O[C@@H]2[C@@H]3F)c(=O)[nH]1 (single isomer, unassigned) [Example 29B] | > 5.00 |  |  | Human WT Agonist Efficacy ([1]; 5 hrs): >100%; Murine Agonist Efficacy ([2]; 5 hrs): >100%; Human HAQ Agonist Efficacy ([3]; 5 hrs): >100% |
|  |  | Nc1nc2c(ncn2[C@@H]2O[C@@H]3COP(=O)(S)OCCn4c(nc5cc(Cl)cnc54)COP(=O)(S)O[C@@H]2[C@@H]3F)c(=O)[nH]1 (single isomer, unassigned) [Example 14C] | > 5.00 |  |  | Human WT Agonist Efficacy [1]: >100%; Murine Agonist Efficacy ([2]; 5 hrs): >100%; Human HAQ Agonist Efficacy [3]: >100% |
|  |  | Nc1nc2c(ncn2[C@@H]2O[C@@H]3COP(=O)(S)OCCn4c(nc5cncnc54)COP(=O)(S)O[C@@H]2[C@@H]3F)c(=O)[nH]1 (single isomer, unassigned) [Example 1B] | 4.00 to 5.00 |  |  | Murine Agonist Efficacy ([2]; 5 hrs): >100%; Human HAQ Agonist Efficacy ([3]; 5 hrs): <100%; pEC50 [5]: 4.00 to 5.00 |
|  |  | CO[C@H]1[C@H]2OP(=O)(S)OCc3nc4cncnc4n3CCOP(=O)(S)OC[C@H]1O[C@H]2n1cnc2c(=O)[nH]c(N)nc21 (single isomer, unassigned) [Example 27D] | > 5.00 | 4.00 to 5.00 |  | pEC50 ([3]; 5 hrs): > 5.00 |
|  |  | Nc1nc2c(ncn2[C@@H]2O[C@@H]3COP(=O)(S)OCCn4c(nc5c(N)ncnc54)COP(=O)(S)O[C@@H]2[C@@H]3F)c(=O)[nH]1 (single isomer, unassigned) [Example 7B] | 4.00 to 5.00 | 3.00 to 4.00 |  | pEC50 ([3]; 5 hrs): > 5.00 |
| < 100 | > 100 | Nc1nc2c(ncn2[C@@H]2O[C@@H]3COP(=O)(S)OCC(F)(F)Cn4c(nc5cncnc54)COP(=O)(S)O[C@@H]2[C@@H]3F)c(=O)[nH]1 (single isomer, unassigned) [Example 19C] | 3.00 to 4.00 |  | < 100 |  |
| < 100 | < 100 | Nc1nc2c(ncn2[C@@H]2O[C@@H]3COP(=O)(S)OCCn4c(nc5cncnc54)COP(=O)(S)O[C@@H]2C3)c(=O)[nH]1 (single isomer, unassigned) [Example 22B] | 4.00 to 5.00 |  | < 100 |  |
|  |  | CO[C@H]1[C@H]2OP(=O)(S)OCc3nc4cncnc4n3CCOP(=O)(S)OC[C@H]1O[C@H]2n1cnc2c(=O)[nH]c(N)nc21 (single isomer, unassigned) [Example 27B] |  | 3.00 to 4.00 |  | pEC50 [2, 7]: 4.00 to 5.00; pEC50 [5]: > 5.00 |
| < 100 | < 100 | Nc1nc2c(ncn2[C@@H]2O[C@@H]3COP(=O)(S)OCCn4c(nc5cnc(C6CC6)nc54)COP(=O)(S)O[C@@H]2[C@@H]3F)c(=O)[nH]1 (single isomer, unassigned) [Example 12C] |  |  | < 100 | pEC50 [2, 7]: > 5.00 |
| > 100 | > 100 | Nc1nc2c(ncn2[C@@H]2O[C@@H]3COP(=O)(S)OCCn4nc(-c5ccncc5)nc4COP(=O)(S)O[C@@H]2[C@@H]3F)c(=O)[nH]1 (stereo partly drawn) [Example 34C, (1S,17R,19R,20R)-19-(2-Amino-6-oxo-6,9-dihydro-1H-purin-9-yl)-20-fluoro-8-(pyridin-4-yl)-3,14-disulfanyl-2,4,13,15,18-pentaoxa-7,9,10-triaza-3lambda5,14lambda5-diphosphatricyclo[15.2.1.06,10]icosa-6,8-diene-3,14-dione] |  |  | > 100 |  |
|  |  | Nc1nc2ncn([C@@H]3O[C@@H]4COP(=O)(S)OCCn5c(nc6cc(Cl)cnc65)COP(=O)(S)O[C@@H]3[C@@H]4F)c2c(=O)[nH]1 (single isomer, unassigned) [Example 13A] |  | 4.00 to 5.00 |  | pEC50 [2, 7]: > 5.00; pEC50 [5]: > 5.00 |
| < 100 | < 100 | Nc1nc2c(ncn2[C@@H]2O[C@@H]3COP(=O)(S)OCCn4c(nc5c(=O)[nH]cnc54)COP(=O)(S)O[C@@H]2[C@@H]3F)c(=O)[nH]1 (stereo partly drawn) [Example 3C, (1S,21R,23R,24R)-23-(2-Amino-6-oxo-6,9-dihydro-1H-purin-9-yl)-24-fluoro-3,18-disulfanyl-2,4,17,19,22-pentaoxa-7,10,12,14-tetraaza-3lambda5,18lambda5-diphosphatetracyclo[19.2.1.06,14.08,13]tetracosa-6,8(13),11-triene-3,9,18-trione] |  |  | > 100 |  |

| Structure (SMILES) | Emax [4] [%] | Emax [5] [%] | pEC50 [2, 6] | pEC50 [4] | Emax ([2]; Mus musculus, 5 h) [%] | further results |
| --- | --- | --- | --- | --- | --- | --- |
| CO[C@H]1[C@H]2OP(=O)(S)OCc3nc4cncnc4n3CCOP(=O)(S)OC[C@H]1O[C@H]2n1cnc2c(=O)[nH]c(N)nc21 (single isomer, unassigned) [Example 27C] | < 100 | > 100 | > 5.00 | > 5.00 | < 100 | pEC50 ([3]; 5 hrs): > 5.00 |
| Nc1nc2c(ncn2[C@@H]2O[C@@H]3COP(=O)(S)OCCn4c(nc5c(N)ncnc54)COP(=O)(S)O[C@@H]2[C@@H]3F)c(=O)[nH]1 (single isomer, unassigned) [Example 7C] | > 100 | > 100 | > 5.00 | > 5.00 | > 100 | pEC50 ([3]; 5 hrs): > 5.00 |
| Nc1nc2ncn([C@@H]3O[C@@H]4COP(=O)(S)OCCn5c(nc6cc(Cl)cnc65)COP(=O)(S)O[C@@H]3[C@@H]4F)c2c(=O)[nH]1 (stereo partly drawn) [Example 13A, (1S,21R,23R,24R)-23-(2-Amino-6-oxo-6,7-dihydro-1H-purin-7-yl)-10-chloro-24-fluoro-3,18-disulfanyl-2,4,17,19,22-pentaoxa-7,12,14-triaza-3lambda5,18lambda5-diphosphatetracyclo[19.2.1.06,14.08,13]tetracosa-6,8,10,12-tetraene-3,18-dione] | < 100 | > 100 |  |  | > 100 |  |
| Nc1nc2c(ncn2[C@@H]2O[C@@H]3COP(=O)(O)OCCn4c(nc5cncnc54)COP(=O)(O)O[C@@H]2[C@@H]3F)c(=O)[nH]1 [Example 4, (1S,21R,23R,24R)-23-(2-Amino-6-oxo-6,9-dihydro-1H-purin-9-yl)-24-fluoro-3,18-dihydroxy-2,4,17,19,22-pentaoxa-7,10,12,14-tetraaza-3lambda5,18lambda5-diphosphatetracyclo[19.2.1.06,14.08,13]tetracosa-6,8(13),9,11-tetraene-3,18-dione] | > 100 | < 100 |  | 3.00 to 4.00 | > 200 | pEC50 [2, 7]: 4.00 to 5.00; pEC50 [5]: 4.00 to 5.00 |
